Source: the supplement of paper PMC3334620
Whole data set: some 33,000 sequences, median “E-score (-0.5 to 0.5)” near -0.01, cut for the highest 2% near 0.26. Some of the results follow.

Molecular target: Ste12 (UniProt P13574)
Test: PBM E-score (8-mer binding enrichment) (E-score (-0.5 to 0.5)); higher = stronger / more preferred TF binding; most listed sequences are background and not binding sites
Conditions: protein concentration: 200 nM; construct: GST-DNA-binding domain
Procedure: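 Universal 'all 10-mer' protein binding microarrays (Agilent AMADID 015681) probed with GST-tagged S. cerevisiae TFs (full-length or DBD) made by in vitro transcription/translation (PURExpress), about 100-200 nM. Bound TF was detected with fluorescent anti-GST. Each ungapped 8-mer (which stands for itself and its reverse complement) is scored by the PBM enrichment score (E-score), a modified Wilcoxon-Mann-Whitney statistic from -0.5 to +0.5, computed with the Universal PBM Analysis Suite. Scale: above 0.35 generally sequence-specific binding.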

Sequence	PBM E-score
ACCATACC	-0.0304
CCCAGAGA	-0.0416
CATGTGTC	0.0145
CGACCTCA	-0.124
CCCTACGA	-0.0392
ACGAGGAG	-0.0506
AAGTGGGC	-0.0304
AAAAGTTT	0.283
ATCAGCAT	0.0807
ATGAACCA	0.173
CCCTAACC	0.0973
TATGCTGA	0.14
ACTGCAAA	0.0632
CCGTGGAA	0.191
CCTGGCAG	-0.103
ACTTATCG	0.0899
CCGGTTCC	-0.0853
CGAGCCCG	-0.0148
TGCGAGAA	0.0173
CCTACTAA	0.0824
CAACATTA	0.0846
ATACCAAG	0.235
ACGTCGAC	-0.0338
ACCACTCT	-0.189
CTGCCCAC	-0.193

Sequence	PBM E-score
GCATAAGC	0.122
ACTCCTAC	-0.124
AGACTCGG	-0.179
GGTGGCGA	-0.0597
CACATACC	-0.22
GAACTTAC	-0.107
GTCACGAA	0.206
CGGACAAA	0.0587
AGCTTCTC	-0.187
AATGTTAC	0.0846
CGGTCTTA	-0.0177
AGTCGGTC	-0.174
AAAACGGC	0.225
CGGAACAA	0.181
CGTGGGCC	-0.144
AGCAAAAT	0.129
CTGGACGA	-0.16
CGTCTTAA	-0.0333
GTTTATGA	0.0999
ATCTTGAA	0.00108
AGGGTACA	-0.00798
ACAGGGTC	-0.115
AATCAGCC	-0.0704
TTCTTCAA	-0.00874
TAAGATAA	0.0959

Sequence	PBM E-score
CTGTTGTC	-0.0526
CTCTGGCA	0.0647
CTTTTACC	0.0888
TCCAAACA	0.0573
CGCTTTTC	0.142
GACAAGAC	0.0371
AACGTTGT	0.189
CGAAGACG	-0.13
CAGTGAGA	0.0675
ATACCTGG	-0.0421
CGATGTGA	0.046
TGCGGCAA	-0.00227
GTAACCAC	-0.00545
AGAAAGAT	0.0761
CATACTTC	-0.0961
CTTCCTTC	-0.198
CTATGCTC	-0.0127
ATTAGGGA	-0.00141
AAACGCTG	0.0873
AATAGGGG	0.0284
CGCAGGAG	-0.0115
GCCCACAC	0.0974
AAGGTGTC	-0.125
ACGGTAGT	-0.162
ATGTGCAG	-0.18

Sequence	PBM E-score
CCTAGGGC	-0.186
ATTATTAC	0.269
CATGAATG	0.0749
CGAATACA	0.0383
ATATCATG	-0.0327
CCTTCTAA	-0.209
GCAGTAAA	0.221
AGCTTAAC	-0.201
AGTTTTCC	-0.0188
ATGCAGAA	-0.0849
CCAGCGGG	-0.163
ATATGTAG	0.0162
AAAACACG	0.304
GCTGGCTA	-0.2
CCGTAAGG	-0.214
GTTAGATA	0.171
ACTCGCAT	-0.0182
CTTGGGGA	0.0413
CACATGCC	-0.0269
CACGCGAG	0.0636
GAGCAGAC	0.00165
AGTAAAGG	0.187
AGAGGTGG	-0.0142
ACTAGGCC	-0.304
TGACAACA	0.0689

Sequence	PBM E-score
AATATCTA	-7e-05
ATTAAACA	0.157
GAACCTCC	0.0151
GGTGACGA	0.0891
CAGCTCCC	-0.254
TTCAGGAA	0.118
CTTGCCAA	-0.105
AAAGACCA	-0.00497
CACCTCAA	0.101
ATGACATC	0.162
CCCTAGGG	-0.201
TGACCAAA	0.101
AATAATCT	0.142
ATTAGGCG	-0.0372
ATGAACGA	0.0693
GGAACCTA	0.0295
ACTGAATG	-0.0478
CGCCTACG	-0.155
GGCGGGAA	0.00719
ACGACTAT	-0.0677
CTCATCCC	0.0715
ACCGCCCT	-0.00709
CAGATTGC	-0.0985
AGGGATCG	-0.153
CACCTCAG	-0.0725

Sequence	PBM E-score
CAAGGCCA	-0.0992
CGTGAGGC	-0.0965
ACGACTAA	-0.226
GCCAGCAA	-0.0826
GGCGGACC	0.0941
CCCGTTGA	0.0754
CTAAACAC	0.179
TGGATACA	-0.0618
AAAGTAAG	-0.0593
CATCGGGC	-0.0339
GTGGGAAC	-0.108
GGCGCCAC	-0.0338
CAGCTTCC	-0.147
CGCCGACG	0.0291
ACACCCCC	-0.282
CATCGATA	0.128
GCTGGTCC	-0.156
AATATGTC	0.117
CGCGAGGA	-0.0823
ACTTGTAA	0.0516
AAATAAGC	0.0762
ACGGTGGG	-0.00172
ATCGTAAC	-0.047
CGGTACCG	-0.136
GGCTTTTA	-0.058

Sequence	PBM E-score
GATTCCGC	0.0216
CACGGTCG	-0.284
TCTAGGCA	0.0522
CTGTCTAA	-0.0946
TCCAAGCA	-0.16
CCATTCGC	0.052
TGTCGTAA	-0.0855
CCCGTGTC	-0.0536
CAGAGGAA	0.0502
CGAAAAGC	-0.0111
ATTTAGTC	-0.0892
GCCAACTA	-0.196
AAGTCGCA	0.0441
CCATAAGC	-0.125
AATCGCGA	0.202
CCGATCCG	-0.0912
TATGTCAA	0.171
AGACGGCA	-0.13
ATGGCGCC	-0.254
ATACCTCG	0.0226
CCTATCGC	-0.176
AAGCGGGC	-0.138
CAGACCAG	-0.0554
CCTGTGCA	-0.172
AGACATTC	-0.105

Sequence	PBM E-score
CCAAAGAA	0.181
GATTGACA	-0.0608
AGGGTCTG	-0.0534
AGTCTAAT	0.00604
AGCCATCG	-0.208
GACTGATC	0.0386
AAGCCCGC	-0.0285
ACGAGCCA	0.0397
GATTGACC	-0.0669
AGAGCGCC	0.0912
AGTACCGA	0.0869
GCCACAAC	0.126
CCACAGGC	-0.246
CACTGTAG	-0.049
ACTCGACC	-0.0423
ATAGATAA	0.159
CCGGTAAA	0.115
AAGAGAGC	-0.126
CAGCACTG	-0.00677
GGCAAGGA	-0.131
CATCATGA	-0.0187
ACGACTCC	-0.14
AACCGCAG	-0.122
ACCGCTGC	-0.0433
CATTGTAA	0.234

Sequence	PBM E-score
CGTTCCTC	0.00377
AACCGAGG	-0.115
CACTGTTA	-0.0596
CCTAACGC	0.0951
CATCAGTA	-0.0586
AGCTGAAT	-0.0624
CATTAACA	0.209
CGACTGAG	-0.131
AGTGGAAT	0.00046
CCCCGCCG	0.242
GAGTTGTA	-0.0493
ATAACTTA	0.11
AAATTGTT	0.186
ATCTGCCA	0.00606
CTCGCTTA	0.134
CCACGCAC	-0.0462
ATATGGTC	-0.00502
CTGACCTA	-0.176
GGAGGGCC	-0.145
ACCACACA	-0.0462
ACAGCTGC	-0.013
ATGATTGA	0.147
ATAACCTG	-0.136
ACCAAGCG	-0.0473
CCCTAAAA	0.125

Sequence	PBM E-score
GTCGGCCA	-0.255
GGATGAAC	-0.196
CCGATCAA	-0.00428
CCTAGGAG	-0.202
ATCGGAAG	0.023
TAATAGTA	0.117
GGGCGGAA	0.119
ACATCCAA	0.0954
GTCCTCCA	0.0678
GTTTATTA	0.304
AACGGACT	-0.213
ACGGCACA	-0.0799
CGGGTACG	-0.197
CTTAGCCA	-0.156
CTCAGTGC	-0.0358
CAGGGAGC	-0.273
CATAACTA	0.105
GAGGAGAA	-0.202
GGTGCCTA	-0.201
CAATACAA	0.294
CACATTTC	0.137
CAGAGCTA	-0.273
AAAAGATT	0.127
CGCACAAG	0.0509
AGTAACAC	0.0934

Sequence	PBM E-score
CTCGGGAA	-0.0785
CTAGCGCA	-0.131
CCAATTAG	0.0909
ATGGGACC	-0.062
CCAGACTA	0.00734
TACATGTA	0.129
CCCCCCAC	-0.184
CAGGCAGC	-0.0436
AGATCATC	-0.174
ACGCTACT	0.0386
ATTTATAA	0.267
CTTGAGTA	-0.208
ACAGAAGG	-0.173
CTAGTAAG	-0.0551
ATCTAATC	0.0131
ACCCAACA	-0.0606
CTTGATTC	0.0606
CCGGATGC	-0.205
AAGGAGAA	-0.0234
ATACTCTG	0.0799
ATAGTTGA	0.205
AGAGCTAA	-0.177
ACGAAGAG	-0.0093
CTGGCAAC	-0.101
AGTCAGAA	0.127

Sequence	PBM E-score
TATCTAGA	-0.02
GGTAGCAA	-0.233
AGTTAGAC	-0.0969
ATAGATCA	0.0307
ATGCAAGC	-0.13
ATTGTTGA	-0.0395
AAGTAGTG	-0.075
ATAACACA	0.141
CATCGGCC	-0.0877
CATATTGC	-0.0905
GAAGCAGC	-0.114
AGGTAGCC	-0.26
ACAGCCTG	0.0236
CGGCACAC	0.124
CATGATGG	-0.0574
AGCTTTAG	-0.119
CCTTGGGC	-0.158
CTCTAGAA	-0.0761
GGGAGAGA	-0.216
TAAATTCA	-0.0128
CCACCAGA	0.0755
GTACATCA	0.133
ATCGAATA	0.0396
AGCTGCCT	-0.217
TCATATAA	0.207

Sequence	PBM E-score
TAACCTAA	0.0929
CTGAAGAA	-0.0851
CTCACCAC	-0.168
ACCGTGTA	-0.0843
CAATCCAC	0.0709
TAAGCTGA	-0.0395
AACCGGTA	-0.00864
GTATGCAA	-0.157
GAATTGGC	-0.115
ATAAACAT	0.228
GGCAAACA	0.0903
CCAGATCC	-0.149
CGTGCAAA	-0.24
ACGTCGAG	-0.101
GAACGTGC	-0.105
GAGAGTGC	-0.186
CCCATTAG	-0.25
ATATGAGA	0.222
ACTAATTG	0.213
AACAACTC	0.0625
CGCCCTAC	-0.11
GCGTGTAA	-0.116
CGACGTAC	0.0541
CGTAGACG	-0.284
GTCGAAGA	-0.0112

Sequence	PBM E-score
ACGGTCCG	-0.265
GGGCACAA	0.112
CATCTCCC	-0.0229
CGCCGCGA	0.0904
GTTAACTA	0.0413
CGTCCCAA	0.0411
CTCACCCC	0.0878
TCAGTAAA	0.131
CCTCATAC	0.0504
AGGCCATG	-0.0997
GCAAAAAC	0.0563
CTCAAGAC	-0.0036
ACCTATAG	-0.108
ACAGATGC	-0.158
AGTGACTA	-0.0881
AACAAACC	0.116
CGACTGCA	-0.0549
AACCGACT	-0.0695
CTGTAAGA	-0.00245
